Source: the supplement of paper PMC4967469
IC50 is the fitted dose that halves viability relative to control wells, and lower means more sensitive; where the fit passes the top or lowest dose, that dose stands as a limit. AUC sums up the same curve from the lowest dose to the 256-fold higher top dose; it is 1 without any effect and falls as sensitivity rises. For some assays here: Any top dose called inferred was calculated from the reported fits. For some assays here: Where an entry number is given, a second screen of the drug exists; the two often differ.

Tests used:
Test in all cases: Viability of human cancer cell lines after 72 h of drug (GDSC screen)
XMD13-2 = compound: O=C(NC1CC1)c1cccc(-c2ccc3c(NC(=O)C4CC4)n[nH]c3c2)c1 [XMD13-2]; conditions: top dose 10.24 µM; top dose inferred
Experimental: (§1)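 Human cancer cell lines in 384-well plates, medium with 10% serum, drug for 72 h over a 256-fold dose range (nine 2-fold or five 4-fold steps up to the top dose). Adherent lines were fixed and stained with the nucleic acid dye Syto60, suspension lines read with resazurin; signal relative to control wells, capped at 0 and 100%. One two-parameter sigmoid per drug and line, fitted in a mixed model over all curves with the slope shared within a line.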

Afatinib = compound: CN(C)C/C=C/C(=O)Nc1cc2c(Nc3ccc(F)c(Cl)c3)ncnc2cc1O[C@H]1CCOC1 [Afatinib]
Experimental: as §1

Vinblastine = compound: CC[C@]1(O)C[C@@H]2CN(CCc3c([nH]c4ccccc34)[C@@](C(=O)OC)(c3cc4c(cc3OC)N(C)[C@H]3[C@@](O)(C(=O)OC)[C@H](OC(C)=O)[C@]5(CC)C=CCN6CC[C@]43[C@@H]65)C2)C1 [Vinblastine]; conditions: top dose 0.1 µM; top dose inferred
Experimental: as §1

SNX-2112 = compound: CC1(C)CC(=O)c2c(C(F)(F)F)nn(-c3ccc(C(N)=O)c(N[C@H]4CC[C@H](O)CC4)c3)c2C1 [SNX-2112]; conditions: top dose 2.56 µM
Experimental: as §1

PF-562271 = compound: CN(c1ncccc1CNc1nc(Nc2ccc3c(c2)CC(=O)N3)ncc1C(F)(F)F)S(C)(=O)=O [PF-562271]; conditions: top dose 2.56 µM; top dose inferred
Experimental: as §1

[1] = top dose 0.5 µM, screen: GDSC drug entry 1032
[2] = top dose 10 µM, screen: GDSC drug entry 1377, top dose inferred

Cell Line | AUC (XMD13-2) | IC50 (XMD13-2) [nM] | AUC (Afatinib; [1]) | IC50 (Afatinib; [1]) [nM] | AUC (Afatinib; [2]) | IC50 (Afatinib; [2]) [nM] | AUC (Vinblastine) | IC50 (Vinblastine) [nM] | AUC (SNX-2112) | IC50 (SNX-2112) [nM] | AUC (PF-562271) | IC50 (PF-562271) [nM]
C2BBe1 (large intestine, adherent) | 0.975 | > 10200 | 0.974 | > 500 | 0.854 | 9670 | 0.615 | 13.6 | 0.783 | 1240 | 0.94 | > 2560
NCI-H3122 (lung adenocarcinoma, adherent) | 0.895 | > 10200 | 0.987 | > 500 | 0.982 | > 10000 | 0.423 | 3.83 | 0.281 | 37.6 | 0.873 | > 2560
MDA-MB-361 (breast, adherent) | 0.954 | > 10200 | 0.951 | > 500 | 0.838 | 6690 | 0.303 | 1.75 | 0.493 | 153 | 0.963 | > 2560
KNS-42 (glioma, adherent) | 0.964 | > 10200 | 0.984 | > 500 | 0.959 | > 10000 | 0.694 | 24.6 | 0.71 | 711 | 0.919 | > 2560
CTB-1 (B-cell lymphoma, suspension) | 0.523 | 755 | 0.976 | > 500 | 0.904 | > 10000 | 0.489 | 5.79 | 0.23 | 19.1 | 0.954 | > 2560
H2373 (mesothelioma, adherent) | 0.962 | > 10200 | 0.983 | > 500 | 0.98 | > 10000 | 0.701 | 26.9 | 0.811 | 1810 | 0.949 | > 2560
D-247MG (glioma, adherent) | 0.745 | 4280 | 0.98 | > 500 | 0.977 | > 10000 | 0.551 | 9.07 | 0.432 | 97.7 | 0.894 | > 2560
KURAMOCHI (ovary, adherent) | 0.979 | > 10200 | 0.973 | > 500 | 0.939 | > 10000 | 0.691 | 23.6 | 0.798 | 1440 | 0.881 | > 2560
EGI-1 (biliary tract, adherent) | 0.963 | > 10200 | 0.975 | > 500 | 0.902 | > 10000 | 0.616 | 14.4 | 0.721 | 831 | 0.909 | > 2560
SKN-3 (head and neck, adherent) | 0.958 | > 10200 | 0.837 | 423 | 0.953 | > 10000 | 0.552 | 8.89 | 0.568 | 254 | 0.966 | > 2560
HH (T-cell leukaemia, suspension) | 0.819 | 8500 | 0.964 | > 500 | 0.863 | > 10000 | 0.527 | 7.61 | 0.292 | 33.7 | 0.929 | > 2560
PL-21 (acute myeloid leukaemia, suspension) | 0.745 | 3690 | 0.979 | > 500 | 0.965 | > 10000 | 0.56 | 9.35 | 0.386 | 73.5 | 0.877 | > 2560
NCI-H1437 (lung adenocarcinoma, adherent) | 0.897 | > 10200 | 0.985 | > 500 | 0.985 | > 10000 | 0.542 | 8.17 | 0.895 | > 2560 | 0.939 | > 2560
NCI-H720 (lung carcinoid, suspension) | 0.988 | > 10200 | 0.981 | > 500 | 0.98 | > 10000 | 0.713 | 23.5 | 0.934 | > 2560 | 0.992 | > 2560
CPC-N (small cell lung carcinoma, suspension) | 0.918 | > 10200 | 0.909 | > 500 | 0.93 | > 10000 | 0.362 | 2.5 | 0.679 | 533 | 0.979 | > 2560
RPMI-2650 (head and neck, adherent) | 0.956 | > 10200 | 0.962 | > 500 | 0.962 | > 10000 | 0.709 | 25.6 | 0.508 | 168 | 0.889 | > 2560
MY-M12 (leukaemia, suspension) | 0.458 | 484 | 0.981 | > 500 | – | – | 0.632 | 15.2 | 0.249 | 27.3 | 0.962 | > 2560
BxPC-3 (pancreas, adherent) | 0.956 | > 10200 | 0.976 | > 500 | 0.95 | > 10000 | 0.497 | 6.12 | 0.383 | 73 | 0.856 | 2470
YT (lymphoid neoplasm, suspension) | 0.86 | 6590 | 0.97 | > 500 | 0.991 | > 10000 | 0.965 | > 100 | 0.2 | 25 | 0.96 | > 2560
GI-ME-N (neuroblastoma, adherent) | 0.75 | 4460 | 0.971 | > 500 | 0.954 | > 10000 | 0.506 | 6.54 | 0.392 | 72.5 | 0.86 | > 2560
HD-MY-Z (Hodgkin lymphoma, adherent) | 0.862 | 8840 | 0.983 | > 500 | 0.952 | > 10000 | 0.418 | 3.73 | 0.383 | 76.3 | 0.986 | > 2560
NCI-H441 (lung adenocarcinoma, adherent) | 0.967 | > 10200 | 0.94 | > 500 | 0.864 | > 10000 | 0.855 | > 100 | 0.944 | > 2560 | 0.94 | > 2560

Cell Line | AUC (XMD13-2) | IC50 (XMD13-2) [nM] | AUC (Afatinib; [1]) | IC50 (Afatinib; [1]) [nM] | AUC (Afatinib; [2]) | IC50 (Afatinib; [2]) [nM] | AUC (Vinblastine) | IC50 (Vinblastine) [nM] | AUC (SNX-2112) | IC50 (SNX-2112) [nM] | AUC (PF-562271) | IC50 (PF-562271) [nM]
MEL-JUSO (melanoma, adherent) | 0.903 | > 10200 | 0.984 | > 500 | 0.972 | > 10000 | 0.631 | 15 | 0.321 | 47.3 | 0.84 | 2060
HT-1376 (bladder, adherent) | 0.985 | > 10200 | 0.904 | > 500 | 0.882 | > 10000 | 0.79 | 53.6 | 0.977 | > 2560 | 0.945 | > 2560
D-283MED (medulloblastoma, adherent) | 0.991 | > 10200 | 0.985 | > 500 | 0.989 | > 10000 | 0.703 | 21.9 | 0.991 | > 2560 | 0.964 | > 2560
HO-1-u-1 (head and neck, adherent) | 0.968 | > 10200 | 0.7 | 111 | 0.937 | > 10000 | 0.64 | 15 | 0.738 | 739 | 0.927 | > 2560
HGC-27 (stomach, adherent) | 0.933 | > 10200 | 0.988 | > 500 | 0.986 | > 10000 | 0.319 | 2.13 | 0.501 | 161 | 0.839 | 1380
OE19 (oesophagus, adherent) | 0.986 | > 10200 | 0.596 | 59.6 | 0.251 | 108 | 0.719 | 28.6 | 0.771 | 1110 | 0.909 | > 2560
ROS-50 (B-cell leukaemia, suspension) | 0.926 | > 10200 | 0.984 | > 500 | 0.982 | > 10000 | 0.962 | > 100 | 0.851 | > 2560 | 0.983 | > 2560
CAL-72 (osteosarcoma, adherent) | 0.979 | > 10200 | 0.943 | > 500 | 0.966 | > 10000 | 0.505 | 6.46 | 0.984 | > 2560 | 0.917 | > 2560
SISO (cervix, adherent) | 0.939 | > 10200 | 0.988 | > 500 | 0.946 | > 10000 | 0.488 | 5.82 | 0.839 | 1640 | 0.88 | 2450
CHP-212 (neuroblastoma, adherent) | 0.988 | > 10200 | 0.971 | > 500 | 0.986 | > 10000 | 0.419 | 3.82 | 0.983 | > 2560 | 0.806 | 1180
FTC-133 (thyroid, adherent) | 0.983 | > 10200 | 0.966 | > 500 | 0.881 | > 10000 | 0.586 | 11 | 0.956 | > 2560 | 0.979 | > 2560
TE-15 (oesophagus, suspension) | 0.985 | > 10200 | 0.677 | 105 | 0.671 | 2000 | 0.678 | 21 | 0.574 | 262 | 0.881 | > 2560
FU97 (stomach, adherent) | 0.971 | > 10200 | 0.978 | > 500 | 0.984 | > 10000 | 0.812 | 55.4 | 0.875 | > 2560 | 0.927 | > 2560
LN-18 (glioma, adherent) | 0.976 | > 10200 | 0.993 | > 500 | 0.989 | > 10000 | 0.796 | 36.9 | 0.523 | 182 | 0.897 | 2100
GMS-10 (glioma, adherent) | 0.986 | > 10200 | 0.943 | > 500 | – | – | 0.586 | 10.8 | 0.904 | > 2560 | 0.982 | > 2560
EVSA-T (breast, adherent) | 0.966 | > 10200 | 0.977 | > 500 | 0.991 | > 10000 | 0.677 | 18 | 0.769 | 834 | 0.988 | > 2560
CAKI-1 (kidney, adherent) | 0.943 | > 10200 | 0.908 | > 500 | 0.713 | 3440 | 0.693 | 28.7 | 0.827 | > 2560 | 0.816 | 2460
8305C (thyroid, adherent) | 0.971 | > 10200 | 0.957 | > 500 | 0.97 | > 10000 | 0.459 | 4.68 | 0.942 | > 2560 | 0.747 | 1040
REH (B-cell leukaemia, suspension) | 0.8 | 4740 | 0.986 | > 500 | 0.931 | > 10000 | 0.459 | 4.86 | 0.215 | 24.3 | 0.874 | 2320
WIL2-NS (lymphoid neoplasm, suspension) | 0.771 | 3230 | 0.981 | > 500 | 0.979 | > 10000 | 0.568 | 9.24 | 0.176 | 22 | 0.946 | > 2560
IGR-1 (melanoma, adherent) | 0.983 | > 10200 | 0.989 | > 500 | 0.99 | > 10000 | 0.691 | 19.8 | 0.663 | 425 | 0.905 | > 2560
HT-29 (large intestine, adherent) | 0.882 | > 10200 | 0.966 | > 500 | 0.986 | > 10000 | 0.615 | 12.9 | 0.335 | 55.6 | 0.901 | > 2560
